This is one part of the list.

The subject of the test is PfAP2-HC AP2 domain (GST-tagged). The experiment in a line: gcPBM binding intensity (ln(normalized median fluorescence intensity)); higher = stronger DNA binding. In short, it runs like this:
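The binding buffer was 1× PBS containing 1% milk, 0.2 mg/ml BSA, 0.5% salmon testes DNA and 0.03% Triton X-100. In it, GST-tagged P. falciparum DNA-binding domains expressed in E. coli were applied for 1 h to an Agilent 4 × 180k array of primer-extended double-stranded 36-bp intergenic genomic probes plus negative controls. Binding intensity, read with Alexa488 anti-GST antibody and a 488 nm scan, is the highest Masliner-normalised natural-log median intensity across replicate spots of either probe orientation.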
Take “ATATTGACAAATATTACACACATATATATATATATA [CACACA_site4079]”: the “gcPBM binding intensity (ln)” value is 9.71. To “TCATTTATTTTAAGGTGTACCGTTTAAAATCACAAA [XGTACX_site3243]” belongs 9.18. The result for “AATGTTTAATATAACGCATGCCTTAATATAGAATGC [TGCATGCA_site463]” reads 9.59; that for “TTTCTAATTTATATCACACACATATATAAATAGTAA [CACACA_site6156]”, 9.72. The result for “ATATATATAATTTAAAGTACATATTTAAGAATGAAA [XGTACX_site2238]” reads 9.62; that for “AGTTTTATGTAGTGTTGTACTTTATACAAATATATA [XGTACX_site990]”, 9.7; that for “TACAAAAATGTAGTCACACATATGTATACTTTTATG [CACACA_site5607]”, 9.86.

“AGTAATAATATAATTTGTACATATATATATTATAAA [XGTACX_site7138]”: the “gcPBM binding intensity (ln)” value amounted to 9.63.

Regarding “GTTTAACTGTTTTATACACACAATGTAGACAATAAA [CACACA_site8967]”, the “gcPBM binding intensity (ln)” value worked out at 9.7. For the sequence “CACTGTAAATAGAAAGTGCAAAAATTGTAAATAAAA [GTGCAC_site9980]”, the “gcPBM binding intensity (ln)” value is 9.72. To “GTACAAAAAAAGTGTACACAAAGTAAGACTTTAATT [CACACA_site5068]” belongs 9.8; to “ACTTGATTACACAACCACAAGTAATTGAAATTATTT [XGTACX_negctrl_site297]”, 9.65. To “TAAATACATTGACACACACACAAATATGTACATACA [CACACA_site7371]” belongs 10.5.

On to “TGAAAAGATAAAAAATGTACATATATATTATATATA [XGTACX_site5678]”, for which the “gcPBM binding intensity (ln)” value turned out to be 9.71. To “TTTCTAAATAATATACACAAAAAAATAAAACACTAA [TGCATGCA_negctrl_site43]” belongs 9.56; to “ATACACAATTATTTTCCTATTATGCAAGCAAATTTA [CACACA_negctrl_site1176]”, 9.52. To “ACATCTAGGCTTATTTTATGATACATGTGAATATAT [TGCATGCA_negctrl_site325]” belongs 9.77; to “GTTTTTGAGTAGTACACACACAATAAGGATGGATTC [CACACA_site3192]”, 9.93.

As to “ATAAAAACTACATTCACACAAAAAAAAATCTACAAA [CACACA_site6109]”, the “gcPBM binding intensity (ln)” value worked out at 9.69. To “AATAATATTAATAAAAGTACATGTGTAATATATATA [XGTACX_site5922]” belongs 9.88; to “ATAAAGATAATATATGCACACATATAAATATATAAA [CACACA_site9153]”, 10.1.

In the case of “ATATATATATGTTAGGTGCATATATATTTTGTGGAT [GTGCAC_site9964]”, the “gcPBM binding intensity (ln)” value came out at 9.8.

For the sequence “ATATATATAATATATTGTACATATAATATATATATA [XGTACX_site4792]”, the “gcPBM binding intensity (ln)” value was determined as 9.43.

Turning to “GAATAATTAAAAGGTAGTACAAAGGTTATCAAAAGG [XGTACX_site8496]”, the “gcPBM binding intensity (ln)” value came to 9.73. “GATATGATTATGTGATGGTGTTTTTGATAGATATTT [CACACA_negctrl_site1445]”: the “gcPBM binding intensity (ln)” value came out at 9.87.

TTGTTCTTTTGAAAGGTGCAAAAGAAAAATAATTAA: the “gcPBM binding intensity (ln)” value was 9.62.

In the case of “AGAAAACCGAAAGAGACACACAACATGTCGATTTAG [CACACA_site3764]”, the “gcPBM binding intensity (ln)” value was determined as 9.83.

As to “ATAATTTCTATTTCACAAAAAAAAAAAAAAAAAAAA [CACACA_negctrl_site1012]”, the “gcPBM binding intensity (ln)” value was 8.74.

In the case of “ACTAAAAGGCTTAAATGTACATATTATATATATATA [XGTACX_site5897]”, the “gcPBM binding intensity (ln)” value is 9.61.

Regarding “CTTTTTTTTTTGGGGGTGCATGCAAGACATATATTT [GTGCAC_site9660]”, the “gcPBM binding intensity (ln)” value was found to be 9.69. Regarding “ACATAACTTATATATACACACAATACAAATATATAT [CACACA_site2774]”, the “gcPBM binding intensity (ln)” value was found to be 10.1.

As to “TTTAATTTTTATATAACACACATATTGTAATTATGT [CACACA_site4566]”, the “gcPBM binding intensity (ln)” value turned out to be 9.92. The result for “ATGTTTAATTAAATATGTACTTATTATATTATATGT [XGTACX_site8137]” reads 9.68; that for “AGGAATCTACATATATGTACATATATTGATATATTT [XGTACX_site137]”, 9.79. As for “TATATATGTAGACGTTGTACTTTTTTGTAAGTTTAA [XGTACX_site5638]”, the “gcPBM binding intensity (ln)” value stood at 9.52. The result for “TTTAAATTTTTATATTGTACTTTATTTATTTATTTA [XGTACX_site869]” reads 9.75. On to “CATGACATATCCTGTAGTACAACGTATATATAAGAT [XGTACX_site2577]”, for which the “gcPBM binding intensity (ln)” value was found to be 9.74. To “AAAATAAAATCATAAAGTACAAAAAGAAAATAAAAA [XGTACX_site7376]” belongs 9.68; to “AATTTTCAATAGTATACACACAATTATATATATATA [CACACA_site1116]”, 9.77. Turning to “TCTTTTCTCGGAAGGGTGCAAGGAATTAATGAAATA [GTGCAC_site9706]”, the “gcPBM binding intensity (ln)” value was 9.4. The result for “TCAATAAATATACATACATGCATACATACATACATA [TGCATGCA_site197]” reads 9.62; that for “TGTGTTAATATGAATTTAAACATAAATAAATAAATA [CACACA_negctrl_site1589]”, 9.53; that for “GAACATTTATTGTGTGTGCACAATTCTTTTTTAACC [GTGCAC_site9697]”, 9.98.

Regarding “AATAAAATATATTCCTGTACATATGATTCTTTTTTT [XGTACX_site7980]”, the “gcPBM binding intensity (ln)” value was 9.69.

The values above are taken from the supplement of paper PMC11417369.
